Reference: PubChem BioAssay AID686979 (National Center for Advancing Translational Sciences (NCATS), 2013)
Among all 420,000 compounds or so, about 50,000 (12%) were called active. Inconclusive results, whose numbers are uncertain, are shown with a selection of clear calls. Calls come from the whole dose curve; as a rule, active = well fitted inhibition curve with a large enough effect; inconclusive = small, poorly fitted or top-dose-only effect; inactive = flat fitted curve, though single readings scatter. No potency is given beside an inconclusive call; the fits are too rough.

Assay: qHTS for Inhibitors of human tyrosyl-DNA phosphodiesterase 1 (TDP1): qHTS in cells in presence of CPT; note: nearly all actives have a fitted effect of over 55% in size
Conditions: chicken DT40 Tdp1-/-;hTDP1 cells + 20 nM CPT, ATP luminescence, 48 h; series mostly up to 46.2 µM
In short: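 Cell growth measured by CellTiter-Glo luminescence after a minimum 48 h, 37 C compound exposure with 20 nM CPT in Tdp1-knockout DT40 cells stably expressing hTDP1, seeded 400/well; qHTS titration format.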
Potency is the fitted concentration of half-maximal effect; tags give direction and shape of the fitted curve.

With `COc1cc(-c2noc(C)c2C#CCCN2C(=O)c3ccccc3C2=O)cc(OC)c1OC` as the compound, how does the Potency read?
The Potency was inconclusive [inhibitor, single point].

With `Cc1nc2scc(C)n2c(=O)c1S(=O)(=O)NCC1CCN(Cc2ccc(Cl)cc2)CC1` as the compound, how does the Potency read?
Its Potency is inconclusive [inhibitor, single point].

For `COc1ccc(C(=O)C2CCCN(S(=O)(=O)c3cccnc3)C2)c(C)c1` (stereo not given), which Potency is on record?
Its Potency is inconclusive [inhibitor, partial curve].

For `O=C(CS(=O)(=O)c1ccc(F)cc1)NCCS(=O)(=O)c1ccccc1`, which Potency is on record?
Its Potency is “inactive”.

With `Nn1cnnc1N/N=C/c1cccc(Cl)c1Cl` as the compound, how does the Potency read?
The Potency was “inactive”.

For `Cc1nn(CC(=O)NCc2ccccc2Cl)c(=O)c2cccn12`, which Potency is on record?
Its Potency is “inactive”.

For `CC1(C(=O)N2Cc3ccccc3C2)CCN1C(=O)Cc1ccccc1` (stereo not given), which Potency is on record?
Its Potency is inconclusive [inhibitor, partial curve].

With `COc1ccc([C@H]2CC(=O)C[C@@H](CCn3cc(C)nn3)O2)cc1` as the compound, how does the Potency read?
The Potency was “inactive”.

With `CC(=O)c1c(N2CCN(c3ccc(F)cc3)CC2)nc(=S)n(Cc2ccccc2)c1C` as the compound, how does the Potency read?
Its Potency is inconclusive [inhibitor, single point].

Which Potency does the source give for `CCC(CC)C(=O)Nc1ccc(C(=O)Nc2cc(C)on2)cc1` here?
Its Potency is “inactive”.

For `CCCC(=O)Nc1cc(C(=O)NCc2ccc(OC)cc2)ccc1S(=O)(=O)c1ccc(Cl)cc1`, which Potency is on record?
Its Potency is inconclusive [inhibitor, single point].

For `CCOc1ccc(NC(=S)NCCN2CCN(Cc3ccccc3)CC2)cc1`, which Potency is on record?
Its Potency is inconclusive [inhibitor, single point].

Which Potency does the source give for `CC1(C)CO[C@@H](CC(=O)O)CN1` here?
The Potency was “inactive”.

Which Potency does the source give for `O=CN1CCN(C(=O)c2ccc(-c3nc4ccccc4s3)s2)CC1` here?
Its Potency is inconclusive [inhibitor, single point].

With `O=C(OC(c1ccccc1)c1nccc2ccccc12)c1cc([N+](=O)[O-])cc([N+](=O)[O-])c1` (stereo not given) as the compound, how does the Potency read?
The Potency was active: 14.6 µM.

For `CCOC(=O)C1CCN(C(=O)C2CCN(c3nnc(C)c4c(C)n(-c5ccccc5)nc34)CC2)CC1`, which Potency is on record?
Its Potency is inconclusive [inhibitor, single point].

Which Potency does the source give for `Cc1ccc(-c2nnc(OCCN3CCOCC3)c3ccccc23)cc1` here?
Its Potency is inconclusive [inhibitor, single point].

Which Potency does the source give for `COc1ccc(C[C@H]2CN3C(=NC[C@@H]3C(C)C)N2CCNC(=O)c2ccc(C)c(Br)c2)cc1` here?
The Potency was active: 9.2 µM.

For `CCOc1cc(C2NC(=O)N(C)C(C)=C2C(=O)OC)cc(Br)c1O` (stereo not given), which Potency is on record?
The Potency was “inactive”.

For `CC(=O)N[C@H]1[C@H](OC2CCCCC2)O[C@H](COC(C)=O)[C@@H](OC(C)=O)[C@@H]1OC(C)=O`, which Potency is on record?
The Potency was “inactive”.

Which Potency does the source give for `COc1cccc(CN2CCC3(CC2)c2ccccc2[C@@H](NC(=O)c2ccccc2OC)[C@@H]3O)c1` here?
The Potency was inconclusive [inhibitor, single point].

With `COc1ccc(-c2cc(OC(=O)c3ccc(F)cc3)c3c(C)oc(C)c3c(=O)c2)cc1OC` as the compound, how does the Potency read?
The Potency was active: 18.4 µM.

Which Potency does the source give for `C=CCOc1ccc(C2NC(=S)NC(c3ccccc3)=C2C(C)=O)cc1OC` (stereo not given) here?
Its Potency is inconclusive [inhibitor, partial curve].

Which Potency does the source give for `CC(C)CCn1c(CN(C)Cc2ccccc2)nc2c1c(=O)n(C)c(=O)n2C` here?
The Potency was active: 6.51 µM.

Which Potency does the source give for `CC(=O)Nc1ccc(NC(=O)CCn2nnc3ccccc32)cc1` here?
Its Potency is inconclusive [inhibitor, single point].

With `Cc1ccc([N+](=O)[O-])cc1-c1ccc(/C=C(\C#N)c2[nH]nc(N)c2C#N)o1` as the compound, how does the Potency read?
The Potency was inconclusive [inhibitor, partial curve, poor fit].

For `COC(=O)c1ccc(NC(=O)c2cc(-c3ccncc3)nc3ccccc23)cc1`, which Potency is on record?
Its Potency is inconclusive [inhibitor, single point].

Which Potency does the source give for `O=C1NC(=S)N/C1=C\c1ccc(Oc2ccc(C(F)(F)F)cc2[N+](=O)[O-])c(Cl)c1` here?
The Potency was “inactive”.

With `COc1ccc(/C=C2\SC(=O)N=C2N)cc1OC` as the compound, how does the Potency read?
Its Potency is inconclusive [inhibitor, single point].

With `O=C(CCCOc1ccc(Cl)cc1Cl)N1CCc2ccccc2C1` as the compound, how does the Potency read?
Its Potency is “inactive”.

Which Potency does the source give for `CC(O)[C@H]1CC[C@H]2[C@@H]3CC[C@H]4C[C@@H](O)CC[C@]4(C)[C@H]3/C(=N/O)C[C@]12C` (stereo not given in full) here?
Its Potency is “inactive”.

Which Potency does the source give for `Cc1ccccc1C(=O)N1CCc2cc(-c3csc(NC(=O)CN4CCCC4)n3)ccc21` here?
Its Potency is inconclusive [inhibitor, single point].

With `Cc1ccc(Cc2c(C)nn(-c3nc(C)c(C(=O)N4CCCCC4C)s3)c2C)cc1` (stereo not given) as the compound, how does the Potency read?
The Potency was inconclusive [inhibitor, single point].

For `COc1ccc(-c2noc(CSc3nnc(-c4ccccc4)n3-c3ccc(F)cc3)n2)c(OC)c1`, which Potency is on record?
Its Potency is active: 11.6 µM.

For `COC(=O)C1CCN(C(=O)c2ccc3oc(Cc4ccc(Cl)cc4)nc3c2)CC1`, which Potency is on record?
Its Potency is inconclusive [inhibitor, single point].

For `Cc1cccc(NC(=O)CN2c3ccccc3S(=O)(=O)c3ccccc32)c1C`, which Potency is on record?
The Potency was inconclusive [inhibitor, single point].

For `CCCNC(=O)c1ccc(N2CCC3(CC2)CC(c2ccccc2)=NO3)c(NC(=O)c2ccco2)c1`, which Potency is on record?
Its Potency is active: 18.4 µM.

For `Cc1ccc(Cl)cc1OCC(=O)NCCOC(=O)Nc1sc(=S)n(C)c1C`, which Potency is on record?
The Potency was inconclusive [inhibitor, single point].

With `CCN1/C(=C/C(=O)c2ccco2)Sc2ccccc21` as the compound, how does the Potency read?
The Potency was “inactive”.

Which Potency does the source give for `Cc1ccccc1OCC(=O)N1CCCCCCC1` here?
The Potency was inconclusive [inhibitor, single point].

With `Cc1cccc(NC(=O)Cn2cc(C=O)c3ccccc32)c1` as the compound, how does the Potency read?
The Potency was inconclusive [inhibitor, partial curve].

Which Potency does the source give for `C[C@@H]1CN([C@H](C)CO)C(=O)CCCn2nncc2CO[C@H]1CN(C)S(=O)(=O)c1ccc2ccccc2c1` here?
The Potency was “inactive”.

With `COc1ccc2c(-c3ccccc3)cc3nnnn3c2c1` as the compound, how does the Potency read?
The Potency was inconclusive [inhibitor, single point].

For `c1ccc(-c2oc3ncnc(NCCN4CCOCC4)c3c2-c2ccccc2)cc1`, which Potency is on record?
Its Potency is inconclusive [inhibitor, single point].

For `C[C@@H]1ON(C)[C@H]2C[C@H]3c4cc(-c5cccc(F)c5)ccc4CCN3C(=O)[C@@H]12`, which Potency is on record?
Its Potency is inconclusive [inhibitor, single point].

Which Potency does the source give for `C=C1CCC[C@]2(C)C[C@H]3OC(=O)[C@H](CNCCc4ccccc4OC)C3CC12` (stereo not given in full) here?
Its Potency is inconclusive [inhibitor, single point].

For `Cc1cc(C)cc(OCC(=O)NNC(=O)c2ccccn2)c1`, which Potency is on record?
Its Potency is active: 9.2 µM.

Which Potency does the source give for `CC(C)(C)c1ccc(C(=O)NCCC(=O)Nc2ccc3c(c2)OCCO3)cc1` here?
The Potency was “inactive”.

With `c1ccc2[nH]c(SCc3ccc(-c4nnco4)cc3)nc2c1` as the compound, how does the Potency read?
The Potency was inconclusive [inhibitor, single point].

With `Cc1ccc(C(=O)N/N=C\c2cccnc2)s1` as the compound, how does the Potency read?
The Potency was “inactive”.

With `Cc1ccc2cccc(NC3OC(=O)c4ccccc43)c2n1` (stereo not given) as the compound, how does the Potency read?
The Potency was “inactive”.

For `CCOc1ccccc1NC(=O)C1COc2ccccc2O1` (stereo not given), which Potency is on record?
The Potency was “inactive”.

With `CC(C)Cn1c(N)c(C(=O)COC(=O)c2ccc(O)cc2O)c(=O)n(C)c1=O` as the compound, how does the Potency read?
The Potency was inconclusive [inhibitor, single point].

Which Potency does the source give for `COc1cccc(Nc2ncc(C(=O)O)c3ccccc23)c1` here?
The Potency was “inactive”.

With `CSc1nc2ccccc2n1CC(=O)Nc1ccccc1` as the compound, how does the Potency read?
The Potency was active: 5.17 µM.

Which Potency does the source give for `Cc1nn(-c2ccccc2)c(Cl)c1C1C(C#N)=C(N)OC2=C1C(=O)CC(C)(C)C2` (stereo not given) here?
The Potency was inconclusive [inhibitor, single point].

Which Potency does the source give for `Cc1ccc(Cl)cc1NC(=O)C(NS(=O)(=O)c1cccc2nsnc12)c1ccccc1` (stereo not given) here?
The Potency was inconclusive [inhibitor, single point].

Which Potency does the source give for `CN(C)S(=O)(=O)n1cc(/C=C(\NC(=O)c2ccccc2F)C(=O)N2CCOCC2)c2ccccc21` here?
Its Potency is inconclusive [inhibitor, partial curve].

With `CCCC(=O)C1=C(O)C(C(=O)OC)C(C)(C)CC1=Nc1ccc(OC)cc1` (stereo not given) as the compound, how does the Potency read?
The Potency was inconclusive [inhibitor, single point].

For `Cc1ccc(S(=O)(=O)c2nc(NCCN(C)C)sc2Cl)cc1`, which Potency is on record?
Its Potency is inconclusive [inhibitor, single point].

With `O=C(Nc1cccc(S(=O)(=O)N2CCCCC2)c1)C1CCCN1S(=O)(=O)c1ccccc1F` (stereo not given) as the compound, how does the Potency read?
The Potency was inconclusive [inhibitor, single point].

Which Potency does the source give for `Cn1c(Nc2ccccc2)cc(=O)n(C)c1=O` here?
The Potency was “inactive”.

Which Potency does the source give for `CCC/C(=N/Nc1ccc(Cl)cc1)c1cnnc(-c2ccccc2)n1` here?
Its Potency is inconclusive [inhibitor, partial curve].

With `COc1ccc(NC(=O)CC2CC3CCC2C3)cn1` (stereo not given) as the compound, how does the Potency read?
The Potency was “inactive”.

With `CCOC(=O)c1nc(Nc2ccc(C)cc2)c2ccccc2n1` as the compound, how does the Potency read?
The Potency was active: 20.6 µM.

Which Potency does the source give for `CCn1ncc(C2C(C(=O)Nc3ccc(C)cn3)=C(C)NC3=C2C(=O)CCC3)c1C` (stereo not given) here?
Its Potency is “inactive”.

For `N#Cc1ccc(CN2CCCC3(CCN(C(=O)c4cc(C(F)(F)F)cc(C(F)(F)F)c4)CC3)C2)cc1`, which Potency is on record?
The Potency was inconclusive [inhibitor, partial curve].

With `CCOc1ccccc1N(C(=O)c1snc(C(N)=O)c1N)C(C(=O)NCc1ccccc1)c1ccc(O)cc1` (stereo not given) as the compound, how does the Potency read?
The Potency was active: 23.1 µM.

Which Potency does the source give for `CC(=O)c1ccc(N2CCN(S(=O)(=O)c3ccc4c(c3)NC(=O)CC(=O)N4)CC2)cc1` here?
The Potency was inconclusive [inhibitor, single point].

For `O=C(CSc1nc2ccccc2n1S(=O)(=O)c1cccc([N+](=O)[O-])c1)NCCc1ccccc1`, which Potency is on record?
The Potency was inconclusive [inhibitor, single point].
